Screen size: about 310,000 compounds; about 2,200 (0.71%) showed an effect of 50% or more. The effect is printed as a negative number. The list shows a part of the results.
target: human ether-à-go-go-related gene (hERG) potassium channel (human, UniProt Q12809); assay: primary screen, population patch clamp on CHO cells stably expressing hERG
Sequence (Q12809 whole entry, looked up): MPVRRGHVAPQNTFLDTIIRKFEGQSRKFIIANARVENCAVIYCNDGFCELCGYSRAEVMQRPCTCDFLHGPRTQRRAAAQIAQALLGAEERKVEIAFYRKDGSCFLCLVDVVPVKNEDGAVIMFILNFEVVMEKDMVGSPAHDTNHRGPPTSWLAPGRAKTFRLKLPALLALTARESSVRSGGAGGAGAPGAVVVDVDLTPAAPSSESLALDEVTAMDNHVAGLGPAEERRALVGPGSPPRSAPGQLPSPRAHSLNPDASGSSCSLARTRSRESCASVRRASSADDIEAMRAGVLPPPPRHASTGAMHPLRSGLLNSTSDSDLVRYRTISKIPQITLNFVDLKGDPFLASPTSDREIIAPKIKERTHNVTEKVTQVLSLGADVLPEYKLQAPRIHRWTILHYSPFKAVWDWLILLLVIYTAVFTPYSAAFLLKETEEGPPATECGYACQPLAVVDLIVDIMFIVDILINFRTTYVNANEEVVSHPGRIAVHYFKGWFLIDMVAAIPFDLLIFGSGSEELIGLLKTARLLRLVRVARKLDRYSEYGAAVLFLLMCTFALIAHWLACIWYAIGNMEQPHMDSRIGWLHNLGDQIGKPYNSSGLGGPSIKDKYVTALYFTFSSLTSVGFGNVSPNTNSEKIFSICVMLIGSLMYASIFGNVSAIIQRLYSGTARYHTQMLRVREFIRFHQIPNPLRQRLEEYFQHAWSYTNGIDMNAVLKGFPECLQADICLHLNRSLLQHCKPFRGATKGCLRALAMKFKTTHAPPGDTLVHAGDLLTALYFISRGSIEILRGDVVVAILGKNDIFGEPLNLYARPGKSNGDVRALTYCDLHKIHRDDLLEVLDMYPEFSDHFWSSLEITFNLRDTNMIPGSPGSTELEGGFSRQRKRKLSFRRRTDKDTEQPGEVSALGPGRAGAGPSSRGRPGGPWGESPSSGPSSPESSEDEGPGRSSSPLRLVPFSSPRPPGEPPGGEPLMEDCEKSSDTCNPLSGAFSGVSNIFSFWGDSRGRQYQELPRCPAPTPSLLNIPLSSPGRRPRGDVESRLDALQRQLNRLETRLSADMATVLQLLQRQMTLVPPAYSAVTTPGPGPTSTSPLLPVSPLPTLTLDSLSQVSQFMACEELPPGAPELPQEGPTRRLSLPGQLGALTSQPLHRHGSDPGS

| SMILES | hERG current change (%, negative = inhibition) at 1uM |
| --- | --- |
| COc1cc(CNc2ncc(-c3ccc(Br)cc3)n2C)cc(OC)c1OC.O=C(O)C(=O)O | -17% |
| COCC(=O)N(CCc1ccc(OC)cc1)Cc1nc2ccccc2c(=O)[nH]1 | 10.1% |
| COC(=O)CNc1nc(Cl)nc(Nc2ccc(C)cc2)n1 | 19.5% |
| COc1ccc(CC2(C)OC(c3ccc(Cl)cc3)=NN2C(C)=O)cc1 (stereo not drawn) | 7.04% |
| COc1cc(OC)c(C(=O)OCC(=O)Nc2ccccc2Cl)cc1OC | 7.47% |
| O=C(/C=C/c1ccccc1)NC(NC(=S)Nc1cc(Cl)ccc1Cl)C(Cl)(Cl)Cl (stereo not drawn) | 11.1% |
| CSc1nsc(/C=C/Nc2ccc(F)cc2F)c1C#N | 4.7% |
| CC(Sc1nnnn1-c1ccc(O)cc1)c1nc2ccccc2c(=O)[nH]1 (stereo not drawn) | 3.95% |
| Cc1cc(/C=N/n2cnnc2)c(C)n1-c1ccc(C(=O)O)cc1 | -4.41% |
| Cc1cc(OCC(=O)Nc2ccc(N3CCN(C(=O)c4ccco4)CC3)cc2)cc(C)c1Cl | 3.95% |
| COc1ccc2nc(SCC(=O)C(C)(C)C)[nH]c2c1 | 4.48% |
| O=C(NC1CCCCC1)NC1(C(=O)N2CCN3CCCC3C2)CCCCC1 (stereo not drawn) | 14% |
| CCOc1ccc(/C=C2\SC(=S)N(CC(=O)Nc3ccccn3)C2=O)cc1 | 6.28% |
| C[C@@H]1O[C@@H](O[C@H]2C[C@@H](O)[C@]3(CO)[C@H]4[C@H](O)C[C@]5(C)[C@@H](C6COC(=O)C6)CC[C@]5(O)[C@@H]4CC[C@]3(O)C2)[C@H](O)[C@H](O)[C@H]1O (stereo partly drawn) | 9.23% |
| O=C(NCCCN1CCCC1=O)c1cccc(S(=O)(=O)Nc2ccc(F)cc2)c1 | -3.76% |
| O=C(Nc1cccc(-c2ccc(N3CCOCC3)nn2)c1)c1ccccc1Cl | 30% |
| C=C(C)n1c(=O)n(Cc2ccccc2C)c2ccccc21 | 10.8% |
| O=C1Nc2ccc(Br)cc2C1(O)c1ccc(F)cc1 (stereo not drawn) | 12.6% |
| O=[N+]([O-])c1cccc(-c2nc(Oc3ccc(Cl)cc3)c3ccccc3n2)c1 | 10.3% |
| O=C(C1=C[C@H](c2csc3ccccc23)C[C@H](OCc2ccc(CO)cc2)O1)N1CCN(Cc2ccc3c(c2)OCO3)CC1 | 17.3% |
| O=C(O)CCCCCNCc1ccncc1 | -4.99% |
| CCCCNC(=O)Nc1c(C(=O)OCC)[nH]c2ccccc12 | 7.32% |
| C#CCN1C(=O)C(O)(CC(=O)/C=C/c2ccco2)c2ccccc21 (stereo not drawn) | 9.21% |
| c1ccc(-c2nnc(SCc3nc4ccccc4[nH]3)n2Cc2ccco2)cc1 | 3.01% |
| O=C(NNC(=S)Nc1ccc(F)cc1)c1cccc([N+](=O)[O-])c1 | 14.2% |
| COc1cc(NC(=O)C/C(C)=N/NC(=O)c2cccc(O)c2)c(OC)cc1Cl | -0.491% |
| Cc1ccc(-n2ncc3c2CC(C)(C)CC3NC(=O)c2cc[n+]([O-])cc2)cc1 (stereo not drawn) | -62.7% |

| SMILES | hERG current change (%, negative = inhibition) at 1uM |
| --- | --- |
| CCCN(CC1CC1)C(=O)COC(=O)c1oc2ccc(OCC)cc2c1C | 2.45% |
| O=C(NCC1OCCCN1S(=O)(=O)c1ccc(F)cc1)C(=O)NC1CCCC1 (stereo not drawn) | -3.88% |
| COc1cc(C(C(=O)NC(C)(C)C)N(C(=O)CNC(=O)c2cccs2)c2ccccc2)cc(OC)c1OC (stereo not drawn) | 16% |
| CCCSc1nnc(Cc2cc(=O)[nH]c(=O)[nH]2)n1-c1cc(C)ccc1C | 10.6% |
| Cc1cccc(OCCNc2ccc(C(F)(F)F)cc2[N+](=O)[O-])c1 | 5.96% |
| CCCOc1cccc(C(=O)NCCNC(=O)c2cnccn2)c1 | 13.9% |
| COc1ccc(C(C)=O)cc1CN(c1ccccc1OC)S(=O)(=O)c1cccs1 | 11.4% |
| Cc1cc(C)nc(SCc2cnc(C)nc2N)n1 | 20.6% |
| COc1ccc(OC)c(NC(=O)c2ccc(N3C(=O)C4CC=C(C)CC4C3=O)cc2)c1 (stereo not drawn) | 16.7% |
| Cc1nnc(SCc2ccc([N+](=O)[O-])cc2)o1 | 5.15% |
| C=CCN(c1ccc(C(=O)Nc2cc(C)cc(C)c2)cc1)S(C)(=O)=O | 3.91% |
| Cc1c(NC(=O)COc2ccc3ccc(=O)oc3c2)c(=O)n(-c2ccccc2)n1C | 10.2% |
| Cc1c(C(=O)N2CCC(C)CC2)oc2ccc3c(c12)C(O)CC1(CCCCC1)O3 (stereo not drawn) | 16.4% |
| COC(=O)Cc1c(C)nc2nc(NCc3cccc([N+](=O)[O-])c3)[nH]n2c1=O | -2.47% |
| CCc1ccc(NC2Nc3cc(C)nn3S2)cc1 (stereo not drawn) | 6.72% |
| Cc1cccc(C(=O)Nc2cccc(NC(=O)c3ccccc3)c2)c1 | 5.84% |
| N=C1C(c2ccccc2)=C(O)CN1c1cccc(S(=O)(=O)N2CCCCC2)c1 | 10.2% |
| Cc1c(N=Cc2cccnc2)c(=O)n(-c2ccccc2)n1C | 9.26% |
| COc1cccc(C(=O)N2CCN(c3ncccn3)CC2)c1 | 12.9% |
| COc1ccc(N(CC(=O)Nc2cc(C)ccc2C)S(=O)(=O)c2ccccc2[N+](=O)[O-])c(OC)c1 | 15.8% |
| O=C(CCS(=O)(=O)c1ccccc1)Nc1ccccc1F | 11.1% |
| Oc1ccccc1-c1cc(C(F)(F)F)nc(-c2ccccc2)n1 | 13.5% |
| COc1ccc(NC(=O)OCCn2c([N+](=O)[O-])cnc2C)cc1 | 14.3% |
| CCOC(=O)CCn1cc(F)c(=O)[nH]c1=O | 5.8% |
| Cc1nn(Cc2ccccc2Cl)c(C)c1NC(=O)c1nc2ncccn2n1 | 17.3% |
| C=CCc1cccc(Cl)c1OCCON1C(=O)CCC1=O | 7.73% |
| O=C(CN1CCN(S(=O)(=O)c2ccc3ccccc3c2)CC1)Nc1ccc(N2CCOCC2)cc1 | 7.82% |

— publication PMC4336329 (PLoS ONE, 2015)
